# Reference: the BET-seq Pho4 binding data (Le et al. 2018)
# Some of the results follow. Values were computed here from the reads of four pooled replicates and scatter widely.
# Biological target: T1, Pho4 (S. cerevisiae) (UniProt P07270)
# T1 sequence: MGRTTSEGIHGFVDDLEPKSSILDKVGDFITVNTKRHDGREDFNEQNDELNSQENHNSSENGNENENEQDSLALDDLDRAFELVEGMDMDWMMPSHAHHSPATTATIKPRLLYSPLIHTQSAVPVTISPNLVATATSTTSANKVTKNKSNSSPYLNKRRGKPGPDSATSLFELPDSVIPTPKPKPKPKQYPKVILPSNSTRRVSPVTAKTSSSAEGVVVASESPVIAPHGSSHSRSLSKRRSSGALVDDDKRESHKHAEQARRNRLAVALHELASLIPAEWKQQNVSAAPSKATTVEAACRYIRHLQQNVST
# Experiment: relative binding free energy (BET-seq); higher = weaker binding
# Settings: reference: library average
row,Sequence,relative binding free energy [kcal/mol]
1,CTAGTCACGTGAGTGT,0.31
2,GTTGTCACGTGTATTC,0.23
3,GGTGGCACGTGGGATT,-0.03
4,GTTAACACGTGGAGGA,0.13
5,TATTGCACGTGAGGAG,0.06
6,GATATCACGTGATTAG,0.23
7,GGGTGCACGTGGCGAG,-0.14
8,TGCGGCACGTGTGGTG,-0.04
9,CTTGTCACGTGTAGGG,0.2
10,CAGTACACGTGTTGGT,0.05
11,ATTTGCACGTGCGGGT,-0.06
12,TTTTGCACGTGATATG,0.08
13,CGATTCACGTGGTGGA,0.1
14,TATTACACGTGTTGCT,0.09
15,GGGGTCACGTGCACTT,0.22
16,AGGTTCACGTGAACTG,0.28
17,GTGATCACGTGACTGT,0.39
18,CTGAGCACGTGGGCGG,-0.23
19,TAGGGCACGTGAGTTG,0.09
20,CTGGTCACGTGTTATA,0.03
21,GGTTTCACGTGCACTG,0.37
22,CTGGACACGTGAGTGT,0.1
23,TTGTCCACGTGTTTCG,0.11
24,AGGGCCACGTGAAGGG,0.13
25,ATGCCCACGTGAGGGG,0.07
26,GGTAGCACGTGATGAT,0.09

row,Sequence,relative binding free energy [kcal/mol]
1,TATGTCACGTGCCTGT,0.06
2,TTATTCACGTGTCAAT,0.18
3,TTATTCACGTGCGTGA,0.3
4,CCCGGCACGTGGGGTG,-0.26
5,TGGTGCACGTGATCTT,0.02
6,TGTGGCACGTGAGCAG,0.1
7,TTGGGCACGTGTCGTG,0.01
8,GGGCGCACGTGAAGTG,0.28
9,TGATTCACGTGGTGCT,0.25
10,TCTAGCACGTGGGATG,-0.11
11,TGGATCACGTGGAGGC,0.17
12,TCGGGCACGTGGGCTG,-0.23
13,TTTGACACGTGGAAAG,0.15
14,TTGGGCACGTGTGCCG,-0.11
15,AGAAGCACGTGAGTTT,0.1
16,TTTCGCACGTGAACGT,0.23
17,GTGGCCACGTGTTGAT,0.03
18,ATTAGCACGTGCGGCG,-0.11
19,GATAGCACGTGTTCGT,-0.08
20,TTAGACACGTGTGGAG,0.07
21,CGTAACACGTGGTGGA,0.04
22,GAGATCACGTGGTGGC,0.18
23,TAAGGCACGTGACGTT,0.07
24,GGTAACACGTGCCGGG,-0.07
25,TCTAGCACGTGCGGTG,-0.16
26,GGTAGCACGTGGTATA,-0.15

row,Sequence,relative binding free energy [kcal/mol]
1,AAAGGCACGTGGGGGT,-0.2
2,CTCGGCACGTGGAGCG,0.04
3,TACTGCACGTGTGGTT,-0.05
4,TCGGTCACGTGATGGT,0.24
5,ATATTCACGTGGAGCG,0.13
6,TTCAGCACGTGGTTAG,-0.11
7,AGTGGCACGTGGTCAA,-0.26
8,TCAGGCACGTGGGAGT,-0.12
9,GGCTACACGTGGTTTG,0
10,AGTGCCACGTGATATG,0.05
11,TTAGTCACGTGCGTTG,0.05
12,ATTGTCACGTGGTCTT,-0.04
13,ATGTGCACGTGGCTAG,-0.2
14,TTAGCCACGTGGGTTA,-0.31
15,TGCGTCACGTGAAGAG,0.34
16,GTAATCACGTGTGGTG,0.21
17,ACTTTCACGTGTTTTA,0.21
18,AAATGCACGTGGGTTC,-0.13
19,TTCATCACGTGTGTCT,0.13
20,ATGTACACGTGTATGG,0.06
21,TTAAACACGTGGTGTT,-0.1
22,GGCTACACGTGGGGTG,0.05
23,TGGCACACGTGTTTGA,0.12
24,GTTAGCACGTGTTATA,0.06
25,GCTTGCACGTGGTTAG,-0.04
26,GTAGGCACGTGAAGTA,0.13

row,Sequence,relative binding free energy [kcal/mol]
1,TAAGTCACGTGCAAGT,0.26
2,TAAATCACGTGGAATG,0.16
3,GTTTTCACGTGGGCTG,0.12
4,TCATTCACGTGTAGTA,0.19
5,AGGAGCACGTGGGTCC,-0.18
6,TGGCTCACGTGTGGAG,0.24
7,TCGAGCACGTGGGTAG,-0.25
8,TGCTACACGTGTGTTT,0.13
9,GTGTACACGTGTGTAT,0.02
10,CGTAACACGTGTTGTA,-0.14
11,TAGTTCACGTGCGTGC,0.12
12,AAAATCACGTGATGGT,0.23
13,TGTTCCACGTGGATTG,0.04
14,TAAGACACGTGAGGTG,0.22
15,TTGGGCACGTGGAGAG,0.01
16,ATCATCACGTGGTGAT,0.19
17,GGCGTCACGTGTGACG,0.39
18,CGTGGCACGTGTTGCT,-0.01
19,GCTTGCACGTGTGCGT,0.02
20,TCTGGCACGTGTGTGA,-0.1
21,CTATTCACGTGATGGT,0.35
22,AGTCGCACGTGGTTTG,-0.04
23,GAGGGCACGTGCTGGA,-0.11
24,TCGGGCACGTGGCTTG,-0.04
25,TTAGGCACGTGCCTGG,-0.22
26,GTAGTCACGTGTCATG,0.14

row,Sequence,relative binding free energy [kcal/mol]
1,CGCAGCACGTGTGGGG,-0.07
2,TGATTCACGTGGCGTA,0.14
3,CATTGCACGTGCGTGT,-0.11
4,GTATGCACGTGGTGAT,-0.02
5,TGGCACACGTGGAGAG,0.1
6,TGCACCACGTGGTGGG,-0.17
7,CGCGTCACGTGGTAGG,0.04
8,GGTTTCACGTGGGCTC,0.26
9,TGTAGCACGTGTTTCG,-0.12
10,GTTGACACGTGATGTG,0.23
11,ATCTACACGTGAGTGT,0.14
12,TGCAGCACGTGGTAGG,-0.17
13,AAATTCACGTGTGGTT,0.31
14,GTATTCACGTGAATTG,0.38
15,ATATACACGTGTTGGA,0.03
16,GTGCCCACGTGGTTGT,-0.15
17,TATCTCACGTGGTGTT,0.13
18,TGGTACACGTGATTAA,0.26
19,ATTGTCACGTGGGGGC,0.01
20,TTGTCCACGTGAGCGT,0.2
21,TGTATCACGTGGGTCC,0.17
22,TTGGGCACGTGTTATC,0.03
23,AGGAGCACGTGCGTGG,-0.11
24,GGATTCACGTGATAAA,0.64
25,GGAGTCACGTGGCGGT,0.05
26,TAGGTCACGTGGACTT,0.07

row,Sequence,relative binding free energy [kcal/mol]
1,CGAAGCACGTGCTGGG,-0.11
2,AGTAGCACGTGTGATG,-0.02
3,GGAGGCACGTGGTTTG,-0.03
4,ATCTGCACGTGGTTAT,-0.04
5,GTAGGCACGTGTTCTT,-0.11
6,TCAGGCACGTGTGATA,0.11
7,CAGGTCACGTGTATGG,0.09
8,GTCGGCACGTGATTAG,0.04
9,ATAAGCACGTGATGGC,0.1
10,TTGGTCACGTGGAAAG,0.17
11,GGAAGCACGTGAGAGG,0.08
12,TAAAGCACGTGGTTAT,-0.14
13,AGTATCACGTGGGGGG,0.08
14,GTTCCCACGTGGTGGG,-0.05
15,GGTGTCACGTGGGTGT,0.07
16,ATGAGCACGTGATGAT,-0.07
17,AACGGCACGTGAGGGA,0.24
18,GTTACCACGTGTGGCT,0.15
19,CGTGGCACGTGTTAGT,-0.07
20,ATTGTCACGTGAAATC,0.37
21,CGATACACGTGGGTGG,-0.06
22,AATTTCACGTGAATGG,0.27
23,TATGGCACGTGATCGG,-0.09
24,GCTGACACGTGTCGGG,0.22
25,CTAAACACGTGTTGGT,-0.02
26,TGGGGCACGTGCGTGG,-0.18

row,Sequence,relative binding free energy [kcal/mol]
1,GTTGTCACGTGCTGGT,0.13
2,TAATACACGTGGGTCG,-0.06
3,TGTAGCACGTGGTTCA,-0.3
4,TGTACCACGTGGGGTT,-0.23
5,TCTGTCACGTGGCTAG,0.19
6,GTGAACACGTGAGTGA,0.18
7,GTCGTCACGTGTGTGA,0.23
8,CGGGGCACGTGAAGCG,0.14
9,GGTAACACGTGATTGG,0.12
10,GAGTGCACGTGGGTAA,-0.08
11,GTATTCACGTGAGTAT,0.31
12,GTTTTCACGTGAACGT,0.48
13,GAGGTCACGTGGGTTA,0.08
14,GAGTGCACGTGTTTTA,0.03
15,CTTTTCACGTGTGGCG,0.17
16,GGTTGCACGTGATGTG,0.11
17,AGTGGCACGTGTTGGT,-0.07
18,TTTTTCACGTGGTCAC,0.22
19,GTGGGCACGTGGTTAT,-0.09
20,ACAGGCACGTGGTTAT,-0.18
21,TTTCGCACGTGGTTGT,-0.09
22,AGTTTCACGTGTGCGG,0.31
23,TGCTTCACGTGAGTGC,0.36
24,GGGGCCACGTGTGGCG,0.03
25,CTGATCACGTGAGTGG,0.34
26,AACGGCACGTGGTTGA,-0.13

row,Sequence,relative binding free energy [kcal/mol]
1,ATTTTCACGTGTGCGC,0.24
2,GTTGACACGTGTAGTG,0.11
3,TATTACACGTGTTGGA,0.15
4,TTTGGCACGTGGCGGG,-0.11
5,TATTTCACGTGTTCTT,0.12
6,TATATCACGTGGTTGC,0.02
7,TGTAACACGTGTTAGT,-0.01
8,AGTGTCACGTGTAATA,0.25
9,GTGTCCACGTGGGTAT,-0.17
10,TGTTTCACGTGCCGGA,0.15
11,TTTTGCACGTGTCTTT,0.05
12,TATATCACGTGGGACA,0.08
13,GGTGCCACGTGAAGGT,0.2
14,CGCTTCACGTGTAGTT,0.2
15,GGAAGCACGTGTGGAT,0.02
16,GTAGACACGTGTGAGG,0.03
17,AGGTGCACGTGTGAGG,0
18,TCGGACACGTGATTGT,0.11
19,GAGAACACGTGAGGTG,0.35
20,AAATCCACGTGTTTGG,0.04
21,AGTGTCACGTGAGTGG,0.11
22,GGTGTCACGTGAACGG,0.24
23,GAAGTCACGTGTTAAG,0.21
24,TTGTGCACGTGGAGGC,0.01
25,TTGTGCACGTGACCTG,0.15
26,TTATTCACGTGATTAG,0.34

row,Sequence,relative binding free energy [kcal/mol]
1,GACGGCACGTGGGGTG,-0.26
2,GTTTTCACGTGATATA,0.24
3,TTTAACACGTGTACTA,0.06
4,CCGGTCACGTGTGGTT,0.11
5,AATATCACGTGCTGTG,0.14
6,TAGTTCACGTGGTGCC,0.18
7,TGATCCACGTGAGTTT,0.24
8,GCGGTCACGTGAAGTT,0.37
9,TGTCGCACGTGGGGCG,-0.2
10,AGGTACACGTGGTAAG,-0.1
11,TGGAGCACGTGCGGCG,0.03
12,AGTTACACGTGGGCTT,-0.12
13,CGTTGCACGTGACAGG,0.17
14,CGTTACACGTGTTGTA,0.22
15,GTAAGCACGTGTGGAT,-0.01
16,AAAATCACGTGAGTTG,0.26
17,TTCTGCACGTGATGGA,0.11
18,GTTGTCACGTGCGCGG,-0.04
19,CTTAACACGTGGAGGT,-0.09
20,TTTTCCACGTGTTGTC,0.04
21,GGTCACACGTGGTTGA,0.06
22,GGACTCACGTGTGGTT,0.3
